This note sets out measurements from PMC6919601, “Identification of Plasmodium dipeptidyl aminopeptidase allosteric inhibitors by high throughput screening” (PLoS ONE, 2019).

Molecules are shown by their SMILES. In all, about 110,000 compounds went through this assay and about 230 (0.21%) showed an effect of 50% or more. This is one part of the list.
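Note: 30 min substrate incubation versus DMSO and 10 µM JCP410 controls.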

This experiment deals with DPAP1 (Plasmodium falciparum, UniProt Q8IIJ9). The experiment can be described thus: primary screen, percent inhibition; read by cleavage of a fluorogenic dipeptide substrate; higher = more effect of the substance. Also on record: species or system P. falciparum D10 trophozoite lysates; single well.
Sequence of DPAP1 (Q8IIJ9 whole entry, looked up): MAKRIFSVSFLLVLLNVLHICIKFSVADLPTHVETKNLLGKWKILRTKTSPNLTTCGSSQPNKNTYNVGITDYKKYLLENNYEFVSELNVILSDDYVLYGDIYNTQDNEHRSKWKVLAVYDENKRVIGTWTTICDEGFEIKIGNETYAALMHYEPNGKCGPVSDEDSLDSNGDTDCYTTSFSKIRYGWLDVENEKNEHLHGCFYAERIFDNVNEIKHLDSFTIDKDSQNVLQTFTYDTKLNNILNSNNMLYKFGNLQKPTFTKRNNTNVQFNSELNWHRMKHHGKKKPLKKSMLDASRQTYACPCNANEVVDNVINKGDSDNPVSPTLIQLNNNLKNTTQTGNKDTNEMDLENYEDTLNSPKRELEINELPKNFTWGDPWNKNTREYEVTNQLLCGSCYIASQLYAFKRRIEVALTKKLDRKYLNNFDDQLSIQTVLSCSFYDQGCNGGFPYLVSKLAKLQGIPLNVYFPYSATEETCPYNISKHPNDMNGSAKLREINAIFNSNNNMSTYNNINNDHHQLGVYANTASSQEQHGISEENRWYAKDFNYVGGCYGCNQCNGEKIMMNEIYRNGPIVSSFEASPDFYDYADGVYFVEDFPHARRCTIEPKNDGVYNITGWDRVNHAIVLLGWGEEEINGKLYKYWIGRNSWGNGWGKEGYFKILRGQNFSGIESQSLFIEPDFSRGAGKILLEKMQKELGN
Regarding `COC(=O)c1nnc(O)c2ccccc12`, the “% Inhibition @ 10 uM” value is recorded as 1.7%.

As for `O=c1cccc2n1C[C@H]1C[C@@H]2CN(Cc2c(F)cccc2F)C1`, the “% Inhibition @ 10 uM” value is recorded as -1.85%. As to `CCOC(=O)CC1=CC(C)(CC(=O)OCC)C(C#N)(C#N)C(N)=C1C#N` (stereo not drawn), the “% Inhibition @ 10 uM” value is on record as -0.215%. Then `Cc1ccc(C)c(Cn2cnc3c(cnn3-c3ccc(Cl)cc3)c2=O)c1`, with -1.75%. Then `Cc1ccc(-c2nc(CS(=O)(=O)CC(=O)NCCCN3CCN(C)CC3)c(C)o2)cc1`, with -3.7%. As to `O=C(CCc1nnc2n(CCc3ccccc3)c(=O)c3ccccc3n12)NCc1cccnc1`, the “% Inhibition @ 10 uM” value is on record as -2.42%.

As to `O=C1CC(N2C(=O)S/C(=C\c3ccc(F)cc3)C2=O)C(=O)N1c1ccccc1` (stereo not drawn), the “% Inhibition @ 10 uM” value worked out at 4.44%. Then `Cc1ccc(-c2nc3nc(C)cc(C)n3n2)cc1`, with 4.18%; and `CCOc1ccccc1N1CCN(Cc2ccc([N+](=O)[O-])s2)CC1`, with -3.77%; and `COc1cccc2c1Oc1ncccc1N(c1ccc(C(=O)N3CCOCC3)s1)C2`, with 4.76%. Then `CC(=O)NC1=C(C#N)C(c2ccccc2)c2c(ccc3ccccc23)O1` (stereo not drawn), with -2.45%. On to `O=[N+]([O-])c1ccc(CN2CCN(c3ccccc3F)CC2)cc1`, for which the “% Inhibition @ 10 uM” value came to 3.8%.

For `O=C(CSc1nc2nccnc2c(=O)n1CCc1c[nH]c2ccccc12)NCC1CCCO1` (stereo not drawn), the “% Inhibition @ 10 uM” value was 1.96%. Then `O=C(Nc1c(C(=O)N2CCCCCC2)cnn1-c1ccccc1)c1ccccc1Cl`, with 1.98%; and `NC(=O)C1CCCN(Cc2ccccc2Cl)C1` (stereo not drawn), with 1.26%; and `CCCC1=C(C(=O)OCC)C(c2sccc2C)C(C#N)=C(N)O1` (stereo not drawn), with 3.8%. Then `C/C(=C\c1ccc(F)cc1)C(=O)c1c(C)cc(C)nc1O`, with -2.48%; and `Cc1c(Cl)cccc1-n1nc(C)c2c(C)cc(=O)n(CC(=O)NC(C)C)c21`, with 0.936%; and `CCOC(=O)c1ccc2[nH]c3ccccc3c2c1`, with -1.33%. Under `COc1ccc(CCNC(=O)C2CCN(S(=O)(=O)c3ccc(OC)c(OC)c3)CC2)cc1OC` stands -11.3%; under `CCCCCC(=O)NCC(=O)O`, 3.25%. Turning to `CCCCSC(=S)NC1CCS(=O)(=O)C1` (stereo not drawn), the “% Inhibition @ 10 uM” value was found to be 14.4%.

In the case of `COc1ccc2c(c1)OC1(C)CC2/C(=C(\C)O)C(=O)N1` (stereo not drawn), the “% Inhibition @ 10 uM” value was 4.34%. Turning to `COc1ccccc1/N=C1\SC(CC(=O)Nc2cccc(C)c2C)C(=O)N1C` (stereo not drawn), the “% Inhibition @ 10 uM” value is on record as -2.03%.

`N#CC1(NC(=O)[C@H](CC2CCCCC2)NC(c2cccs2)C(F)(F)F)CC1` (stereo partly drawn): the “% Inhibition @ 10 uM” value is listed as -4.82%. Under `COc1cccc(-c2ccc(-c3noc(-c4ccccc4F)n3)c(OC)n2)c1` stands 3.73%; under `O=C(Cn1cc(S(=O)(=O)Cc2ccccc2)c2ccccc21)N1CCCC1`, -0.826%; under `Cc1n[nH]c(C)c1Nc1nc(-c2ccccc2)cs1`, -6.71%.

For `NC(=O)c1c(NC(=O)C2CC=CCC2C(=O)O)sc2c1CCCCC2` (stereo not drawn), the “% Inhibition @ 10 uM” value was found to be 22.2%. Under `CCn1c(SCC(N)=O)nnc1-c1ccc2c(c1)OCO2` stands 5.32%. Then `CC(=O)NCC1CCC(C(=O)O)CC1` (stereo not drawn), with -6.68%; and `Cc1ccc(S(=O)(=O)Cc2nc(-c3ccc(C(=O)NCc4cccnc4)cc3)oc2C)cc1`, with 0.967%; and `COc1cccc(/C=C2/C(=N)N3C=CSC3=NC2=O)c1OCCCOc1ccc(C)c(C)c1`, with 0.147%. With `CC(=O)c1nnn(-c2ccccc2)c1Nc1ccccc1`, the “% Inhibition @ 10 uM” value amounted to 3.83%. Then `CCOC(=O)C1=C(C)NC(=O)NC1c1ccc(-c2cc(Cl)cc(Cl)c2)o1` (stereo not drawn), with 5.55%; and `COc1ccc(C2(CNC(=O)CCC(=O)O)CCOCC2)cc1`, with -1.69%. Then `c1cnc2ccc(-c3ccc4ncccc4c3)cc2c1`, with -6.71%; and `CCOc1ccc(CCNCc2c(C(=O)O)n(Cc3ccc(F)cc3)c3cc(OC)ccc23)cc1`, with 9.74%; and `Cc1cc(C)c2nc(N3CCCC(C(=O)NCc4cccnc4)C3)sc2c1` (stereo not drawn), with 1.8%. Then `COc1ccc(N2C(=O)NC(=O)/C(=C\c3cccn3C)C2=O)cc1`, with 2.16%. Turning to `N#C/C(=C\c1c[nH]c2ccccc12)c1nn(CCO)c(N)c1C#N`, the “% Inhibition @ 10 uM” value is recorded as -4.24%. Then `COc1ccc(-c2cn3nc(N4CCCC(C(=O)NCCCN5CCOCC5)C4)sc3n2)cc1` (stereo not drawn), with -1.41%. Then `CCOC(=O)c1c(-c2ccccc2)oc2ccc(O)cc12`, with -6.06%. Consider `Fc1ccccc1C1C2=C(Nc3ncnn31)c1cc(Cl)ccc1OC2c1cccs1` (stereo not drawn), for which the “% Inhibition @ 10 uM” value worked out at 6.36%. Then `CC(C)(C)Nc1ccc2nonc2c1[N+](=O)[O-]`, with -0.712%. Then `CC1CCN(c2c(NCC3CCC(C(=O)NCCc4ccc(Cl)cc4)CC3)c(=O)c2=O)CC1` (stereo not drawn), with -0.447%; and `COc1ccc(CNc2nc(-c3cccnc3)nn2C(=O)c2ccccc2Cl)cc1`, with -1.15%. Then `CCc1ccc(C2C(C#N)=C(N)N(c3c(F)cccc3F)C3=C2C(=O)CCC3)s1` (stereo not drawn), with -1.64%. With `COc1ccc(NC(=O)CN(Cc2ccccc2)S(C)(=O)=O)cc1OC`, the “% Inhibition @ 10 uM” value was -1.88%. On to `COc1ccc(CNC(=O)c2cc(-c3ccc4c(c3)OCO4)on2)cc1`, for which the “% Inhibition @ 10 uM” value is given as -5.09%. Under `COc1ccc(CC(=O)Nc2ccc(Cl)c(C(F)(F)F)c2)cc1` stands -4.87%; under `COc1ccc(CNS(=O)(=O)c2csc(C(N)=O)c2)cc1`, 3.54%; under `CCOC(=O)c1c(C)oc2ncnc(NCCc3ccc(S(N)(=O)=O)cc3)c12`, 0.536%. Then `COc1cc(CCC(=O)Nc2c(C(=O)N3CCN(Cc4ccccc4)CC3)oc3ccccc23)on1`, with -4.68%; and `CC(C)c1ccccc1NC(=O)CN(c1ccccc1Br)S(C)(=O)=O`, with 2.19%; and `COc1ccc(S(=O)(=O)N(CC(=O)N2CCN(C)CC2)c2cc(Cl)ccc2OC)cc1OC`, with 0.147%. Turning to `C=C(C)CN(CC)Cc1cc(Cl)cc(Cl)c1O`, the “% Inhibition @ 10 uM” value came to 2.1%.

With `Cc1nn(-c2ccccc2)c2c1N(CC(=O)NCc1ccccc1)C(=O)CS2`, the “% Inhibition @ 10 uM” value is listed as -0.858%. Then `CCOc1ccccc1/C=C1\CCc2ccccc2C1=O`, with -3.79%; and `Cc1cccc2c1-c1sc(C(=O)NCc3ccc(F)cc3)cc1CO2`, with -4.85%; and `Cc1nn2c(=O)cc(COc3ccc(/C=C4\C(=N)N5N=C(C(C)C)SC5=NC4=O)cc3)nc2s1`, with 4.28%.

`CC(C)(C)S(=O)(=O)c1ccccn1`: the “% Inhibition @ 10 uM” value is reported as 3.42%. As for `CCN1CCN(Cc2cc(F)ccc2F)CC1`, the “% Inhibition @ 10 uM” value was -4.14%.

In the case of `CCCCNC(=O)CNC(=S)N(Cc1ccccc1F)C1CCCCC1`, the “% Inhibition @ 10 uM” value worked out at 1.27%. Consider `Cc1ccc(NC(=O)CCCN2C(=O)c3ccccc3C2=O)cc1`, for which the “% Inhibition @ 10 uM” value is listed as -3.65%. Under `O=C(O)C1Nc2ccc(Cl)cc2C2C=CCC12` (stereo not drawn) stands 6.66%; under `Cc1c(Cc2ccccc2)sc(NC(=O)CCC(=O)O)c1C(N)=O`, 2.13%. Consider `c1ccc(CN2CCC(N3CCN(Cc4ccccc4)CC3)CC2)cc1`, for which the “% Inhibition @ 10 uM” value is -1.15%.

As to `O=C(COc1ccc(Cl)cc1Cl)NCCNC1=NS(=O)(=O)c2ccccc21`, the “% Inhibition @ 10 uM” value is listed as 3.47%. Under `O=C(CCCC(=O)c1ccccc1)NC1CCCCCCC1` stands -1.46%; under `Cc1ccc2c(c1)-c1c(cnn1CC(=O)NC(C)CCc1ccco1)CO2` (stereo not drawn), -1.36%. Then `COc1ccc(N2CCN(C(=O)CN(c3cc(C)ccc3OC)S(C)(=O)=O)CC2)cc1`, with -13%. As to `CCCOc1ccc(CNC(=O)CCC(=O)n2ncc3ccc(Cl)cc32)cc1`, the “% Inhibition @ 10 uM” value was 8.34%. Then `COC(=O)C1=CN(Cc2cccs2)C=C(C(=O)OC)C1c1ccccc1OC(C)C`, with -1.47%; and `COCCNC(=O)c1cc(-c2ccc(Cl)cc2)nc2ccccc12`, with -3.75%; and `NS(=O)(=O)c1ccc(CCNC(=O)CSc2nc3ccccc3c3nc4ccccc4n23)cc1`, with 6.2%. Then `Cn1cc(/C=C2/SC(=O)N(CC(=O)Nc3ccc4c(c3)OCO4)C2=O)c2ccccc21`, with -17.9%. Then `O=C1N(c2cccc(C(F)(F)F)c2)C2CS(=O)(=O)CC2N1c1ccccc1Cl` (stereo not drawn), with -2.98%; and `Cc1ccc(CNC(=O)CNC(=S)N(CCCN2CCOCC2)Cc2cccs2)cc1`, with -2.14%; and `O=C(O)/C=C\C(=O)c1ccccc1`, with -1.9%. For `O=c1cc(CSc2nc3ccccc3c3nc4ccccc4n23)nc2ccc(Br)cn12`, the “% Inhibition @ 10 uM” value came out at 7.41%. Then `CCCc1n(CC(O)COC2CCCCC2)c2ccccc2[n+]1CC` (stereo not drawn), with 0.147%; and `Cc1cc2sc(NC(=O)c3cncc(Br)c3)nc2cc1Cl`, with 1.84%; and `O=C(Nc1ccc2c(c1)OCCO2)c1cccs1`, with -3.16%. On to `CC(=O)Nc1cc(NC(C)=O)c(C)cc1C`, for which the “% Inhibition @ 10 uM” value came to 3.14%. Then `CC(=O)c1ccc(N2C(=O)C3C4C=CC(CO)(O4)C3C2=O)cc1` (stereo not drawn), with -1.3%; and `Cc1nn(Cc2ccc(F)cc2)c(C)c1NC(=O)C1CCCC1`, with 1.96%. Regarding `CCOC(=O)C1=C(C)N=c2s/c(=C\c3ccccn3)c(=O)n2C1c1ccccc1` (stereo not drawn), the “% Inhibition @ 10 uM” value is on record as -2.91%. Under `Nc1nc(Nc2ccc(O)cc2)nc2ccccc12` stands -0.519%; under `COc1ccc(NC(=O)c2cccc(OC(F)F)c2)cc1Cl`, 1.88%; under `c1cncc(CN2CCc3c([nH]c4ccccc34)C2)c1`, -1.98%. Under `Cc1ccc(-c2nnc3s/c(=C\c4ccc(Cl)cc4)c(=O)n23)cc1` stands -1.33%.

Take `Cn1c2c(c3ccccc31)CCc1nonc1-2`: the “% Inhibition @ 10 uM” value is -4.68%. Under `CS(=O)(=O)CCC(C(=O)Nc1nccs1)N1Cc2ccccc2C1=O` (stereo not drawn) stands -4.1%; under `COc1ccc(NC(=O)C(C)N(c2ccccc2)S(C)(=O)=O)cc1OC` (stereo not drawn), -13.8%. Then `CCCC(C)c1c(O)n(CC)c(SCc2ccccc2)nc1=O` (stereo not drawn), with 0.0792%; and `CC(Cc1c[nH]c2ccccc12)NC(=O)c1ccc([N+](=O)[O-])cc1` (stereo not drawn), with 3.34%; and `Cc1c(Cc2ccccc2)c(=O)oc2c3c(ccc12)OCN(c1cccnc1)C3`, with -7.44%. Then `Cc1cc(C)cc(OCC(=O)NCCCN2CCOCC2)c1`, with -1.33%.
